# Test results as given in the supplement of paper PMC8728848.
# Some of the results follow.
# Legend:
# Experiment in all cases: glycan array binding signal (z-score within array); higher = stronger binding
# Conditions in all cases: glycan notation: IUPAC condensed, linker removed
# Fuc(a1-2)Gal6S(b1-4)Glc = molecular target: Fuc(a1-2)Gal6S(b1-4)Glc
# Procedure, shortened: (§1)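 The binding signal is a Z-score computed within each array. Data were drawn from 3228 arrays in the Consortium for Functional Glycomics database, restricted to those with a known protein sequence. Scores were averaged over arrays of the same protein sequence at different concentrations or buffers, and over linkers, and negative values can be taken as non-binding.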
# [1] = molecular target: Fuc(a1-2)Gal6S(b1-4)Glc6S
# Procedure, shortened: as §1
# [2] = molecular target: Fuc(a1-2)Gal6S(b1-4)GlcNAc
# Procedure, shortened: as §1
# Fuc(a1-2)[Gal(a1-3)]Gal = molecular target: Fuc(a1-2)[Gal(a1-3)]Gal
# Procedure, shortened: as §1
# [3] = molecular target: Fuc(a1-2)[Gal(a1-3)]Gal(b1-3)GalNAc
# Procedure, shortened: as §1
# [4] = molecular target: Fuc(a1-2)[Gal(a1-3)]Gal(b1-3)GlcNAc
# Procedure, shortened: as §1
# [5] = molecular target: Fuc(a1-2)[Gal(a1-3)]Gal(b1-3)GlcNAc(b1-2)Man(a1-3)[Fuc(a1-2)[Gal(a1-3)]Gal(b1-3)GlcNAc(b1-2)Man(a1-6)]Man(b1-4)GlcNAc(b1-4)GlcNAc
# Procedure, shortened: as §1
# [6] = molecular target: Fuc(a1-2)[Gal(a1-3)]Gal(b1-3)GlcNAc(b1-2)Man(a1-3)[Fuc(a1-2)[Gal(a1-3)]Gal(b1-3)GlcNAc(b1-2)Man(a1-6)]Man(b1-4)GlcNAc(b1-4)[Fuc(a1-6)]GlcNAc
# Procedure, shortened: as §1
# [7] = molecular target: Fuc(a1-2)[Gal(a1-3)]Gal(b1-3)GlcNAc(b1-3)GalNAc
# Procedure, shortened: as §1
# [8] = molecular target: Fuc(a1-2)[Gal(a1-3)]Gal(b1-4)Glc
# Procedure, shortened: as §1
# [9] = molecular target: Fuc(a1-2)[Gal(a1-3)]Gal(b1-4)GlcNAc
# Procedure, shortened: as §1
# [10] = molecular target: Fuc(a1-2)[Gal(a1-3)]Gal(b1-4)GlcNAc(b1-2)Man(a1-3)[Fuc(a1-2)[Gal(a1-3)]Gal(b1-4)GlcNAc(b1-2)Man(a1-6)]Man(b1-4)GlcNAc(b1-4)GlcNAc
# Procedure, shortened: as §1
# [11] = molecular target: Fuc(a1-2)[Gal(a1-3)]Gal(b1-4)GlcNAc(b1-2)Man(a1-3)[Fuc(a1-2)[Gal(a1-3)]Gal(b1-4)GlcNAc(b1-2)Man(a1-6)]Man(b1-4)GlcNAc(b1-4)[Fuc(a1-6)]GlcNAc
# Procedure, shortened: as §1
# [12] = molecular target: Fuc(a1-2)[Gal(a1-3)]Gal(b1-4)GlcNAc(b1-3)GalNAc
# Procedure, shortened: as §1
# [13] = molecular target: Fuc(a1-2)[Gal(a1-3)]Gal(b1-4)GlcNAc(b1-6)GalNAc
# Procedure, shortened: as §1
# [14] = molecular target: Fuc(a1-2)[Gal(a1-3)]Gal(b1-4)[Fuc(a1-3)]Glc
# Procedure, shortened: as §1
# [15] = molecular target: Fuc(a1-2)[Gal(a1-3)]Gal(b1-4)[Fuc(a1-3)]GlcNAc
# Procedure, shortened: as §1
# [16] = molecular target: Fuc(a1-2)[Gal(a1-3)]Gal(b1-4)[Fuc(a1-3)]GlcNAc(b1-3)GalNAc
# Procedure, shortened: as §1
# [17] = molecular target: Fuc(a1-2)[Gal(a1-4)]Gal(b1-4)GlcNAc
# Procedure, shortened: as §1
# [18] = molecular target: Fuc(a1-2)[GalNAc(a1-3)]Gal
# Procedure, shortened: as §1
# [19] = molecular target: Fuc(a1-2)[GalNAc(a1-3)]Gal(b1-3)GalNAc(a1-3)[Fuc(a1-2)]Gal(b1-4)GlcNAc
# Procedure, shortened: as §1
# [20] = molecular target: Fuc(a1-2)[GalNAc(a1-3)]Gal(b1-3)GlcNAc
# Procedure, shortened: as §1
# [21] = molecular target: Fuc(a1-2)[GalNAc(a1-3)]Gal(b1-3)GlcNAc(b1-2)Man(a1-3)[Fuc(a1-2)[GalNAc(a1-3)]Gal(b1-3)GlcNAc(b1-2)Man(a1-6)]Man(b1-4)GlcNAc(b1-4)GlcNAc
# Procedure, shortened: as §1
# [22] = molecular target: Fuc(a1-2)[GalNAc(a1-3)]Gal(b1-3)GlcNAc(b1-2)Man(a1-3)[Fuc(a1-2)[GalNAc(a1-3)]Gal(b1-3)GlcNAc(b1-2)Man(a1-6)]Man(b1-4)GlcNAc(b1-4)[Fuc(a1-6)]GlcNAc
# Procedure, shortened: as §1
# [23] = molecular target: Fuc(a1-2)[GalNAc(a1-3)]Gal(b1-3)GlcNAc(b1-3)GalNAc
# Procedure, shortened: as §1
# [24] = molecular target: Fuc(a1-2)[GalNAc(a1-3)]Gal(b1-3)GlcNAc(b1-6)GalNAc
# Procedure, shortened: as §1
# [25] = molecular target: Fuc(a1-2)[GalNAc(a1-3)]Gal(b1-4)Glc
# Procedure, shortened: as §1
# [26] = molecular target: Fuc(a1-2)[GalNAc(a1-3)]Gal(b1-4)GlcNAc
# Procedure, shortened: as §1
# [27] = molecular target: Fuc(a1-2)[GalNAc(a1-3)]Gal(b1-4)GlcNAc(b1-2)Man(a1-3)[Fuc(a1-2)[GalNAc(a1-3)]Gal(b1-4)GlcNAc(b1-2)Man(a1-6)]Man(b1-4)GlcNAc(b1-4)GlcNAc
# Procedure, shortened: as §1
# [28] = molecular target: Fuc(a1-2)[GalNAc(a1-3)]Gal(b1-4)GlcNAc(b1-2)Man(a1-3)[Fuc(a1-2)[GalNAc(a1-3)]Gal(b1-4)GlcNAc(b1-2)Man(a1-6)]Man(b1-4)GlcNAc(b1-4)[Fuc(a1-6)]GlcNAc
# Procedure, shortened: as §1
# [29] = molecular target: Fuc(a1-2)[GalNAc(a1-3)]Gal(b1-4)GlcNAc(b1-3)Gal(b1-4)GlcNAc
# Procedure, shortened: as §1
# [30] = molecular target: Fuc(a1-2)[GalNAc(a1-3)]Gal(b1-4)GlcNAc(b1-3)Gal(b1-4)GlcNAc(b1-3)Gal(b1-4)GlcNAc
# Procedure, shortened: as §1
# [31] = molecular target: Fuc(a1-2)[GalNAc(a1-3)]Gal(b1-4)GlcNAc(b1-3)GalNAc
# Procedure, shortened: as §1
# [32] = molecular target: Fuc(a1-2)[GalNAc(a1-3)]Gal(b1-4)[Fuc(a1-3)]GlcNAc
# Procedure, shortened: as §1
# [33] = molecular target: Fuc(a1-2)[GalNAc(a1-3)]Gal(b1-4)[Fuc(a1-3)]GlcNAc(b1-3)GalNAc
# Procedure, shortened: as §1
# [34] = molecular target: Fuc(a1-2)[GalNAc(a1-4)]Gal(b1-4)GlcNAc
# Procedure, shortened: as §1
# [35] = molecular target: Fuc(a1-2)[GalNAc(b1-3)]Gal
# Procedure, shortened: as §1
# Fuc(a1-3)GlcNAc = molecular target: Fuc(a1-3)GlcNAc
# Procedure, shortened: as §1
# [36] = molecular target: Fuc(a1-3)[Gal(b1-4)]Glc6S
# Procedure, shortened: as §1
# [37] = molecular target: Fuc(a1-3)[Gal(b1-4)]GlcNAc
# Procedure, shortened: as §1
# [38] = molecular target: Fuc(a1-3)[Gal(b1-4)]GlcNAc(b1-2)Man
# Procedure, shortened: as §1
# [39] = molecular target: Fuc(a1-3)[Gal(b1-4)]GlcNAc(b1-2)Man(a1-3)[Fuc(a1-3)[Gal(b1-4)]GlcNAc(b1-2)Man(a1-6)]Man(b1-4)GlcNAc(b1-4)GlcNAc
# Procedure, shortened: as §1
# [40] = molecular target: Fuc(a1-3)[Gal(b1-4)]GlcNAc(b1-2)Man(a1-3)[Fuc(a1-3)[Gal(b1-4)]GlcNAc(b1-2)Man(a1-6)]Man(b1-4)GlcNAc(b1-4)[Fuc(a1-6)]GlcNAc
# Procedure, shortened: as §1
# [41] = molecular target: Fuc(a1-3)[Gal(b1-4)]GlcNAc(b1-3)Gal(b1-3)[Fuc(a1-4)]GlcNAc
# Procedure, shortened: as §1
# [42] = molecular target: Fuc(a1-3)[Gal(b1-4)]GlcNAc(b1-3)GalNAc
# Procedure, shortened: as §1
binder,measurement,setting,value
"PitA (Streptococcus oralis), G3F8D8 (protein) MNIRFDFKKVQIIARRLVTLLAILFLCAPISLLNADSTTEPQTTLHKTITPISGQDDKYELSLDITSKLGTETQTDPLDVVLVADLSGSMQNQDVQSFDGRTISRIDALKNTLRGTNGRKGLIDTILSNSNNRLSMVGFGGKIDNKKVDQYWDGNKWRLFRPYWPYERMTKYYDGVSPWDDANTILGWSNNARAAKTAVYNMSIAGGNSIGTESGIGTGTNIGAGLTLANQLMGSARSNAKKVVILLSDGFANMVYDANGYTIYNYNNEDPNIETAPQWFWDRLNNNLNSLSYSLAPTLDGFYSIKFRYSNNVDSITSLQYYMRQHNASIPNEIFSANDEDQLRDSFKDITDKILPLGIHHVSIKDVLSKYVQLLPNGSSEFRVVKEKDGSSEILIENQVTFDTKTTSEGLVEVTAKFSPNYSLEDGARYVLKFTVTSSQEALDAIAGDKKLEAGDAEGSDVNKLYSNKGASVTYSYGIGNSQTKTKEYSDNPTFKPSDPLTVPVEVEWQGVTGARTVITADQPSNVELKLVQKNKNGGSDNQDYRKTNVNVSKNVSNETRNFEKVAKGYQYDLIAPDVPAFTKEIKNVGTESKPSFKVIYKQLPSLTIKKVLEAENNLNKEFRIKVKLTSPDSKPLNGTFGEITVVNGEAEIRVEKRKRWEGILSYLPRGTHYKVEEEAASTNGYHVTYENQEGDLNKDETSIVTNHKLPSLSVTKKVTGVFANLLKSFKITINIRDAQNSPLNGTYTATVNNKRTPLQFTNGRASIDLNKDQTIKIYGLPLDSHYTVEEESNSSRGYQVSYENQEGKLDGDKSATVTNNKNSVPETGVDFLSSTLMLGIILPLGGIFFTILLGYLVVHRRK",glycan array binding signal (z-score),Fuc(a1-2)Gal6S(b1-4)Glc,-0.191
same,glycan array binding signal (z-score),[1],0.561
same,glycan array binding signal (z-score),[2],-0.316
same,glycan array binding signal (z-score),Fuc(a1-2)[Gal(a1-3)]Gal,-0.728
same,glycan array binding signal (z-score),[3],-0.394
same,glycan array binding signal (z-score),[4],-0.561
same,glycan array binding signal (z-score),[5],-0.478
same,glycan array binding signal (z-score),[6],0.49
same,glycan array binding signal (z-score),[7],-0.049
same,glycan array binding signal (z-score),[8],-0.267
same,glycan array binding signal (z-score),[9],-0.451
same,glycan array binding signal (z-score),[10],0.369
same,glycan array binding signal (z-score),[11],1.33
same,glycan array binding signal (z-score),[12],-0.491
same,glycan array binding signal (z-score),[13],0.131
same,glycan array binding signal (z-score),[14],-0.569
same,glycan array binding signal (z-score),[15],0.176
same,glycan array binding signal (z-score),[16],0.976
same,glycan array binding signal (z-score),[17],-0.469
same,glycan array binding signal (z-score),[18],-0.392
same,glycan array binding signal (z-score),[19],-0.095
same,glycan array binding signal (z-score),[20],-0.017
same,glycan array binding signal (z-score),[21],-0.473
same,glycan array binding signal (z-score),[22],0.068
same,glycan array binding signal (z-score),[23],4.75
same,glycan array binding signal (z-score),[24],-0.334
same,glycan array binding signal (z-score),[25],-0.125
same,glycan array binding signal (z-score),[26],-0.444
same,glycan array binding signal (z-score),[27],0.106
same,glycan array binding signal (z-score),[28],-0.085
same,glycan array binding signal (z-score),[29],-0.715
same,glycan array binding signal (z-score),[30],0.475
same,glycan array binding signal (z-score),[31],0.248
same,glycan array binding signal (z-score),[32],1.54
same,glycan array binding signal (z-score),[33],5.3
same,glycan array binding signal (z-score),[34],-0.66
same,glycan array binding signal (z-score),[35],-0.246
same,glycan array binding signal (z-score),Fuc(a1-3)GlcNAc,-0.562
same,glycan array binding signal (z-score),[36],0.703
same,glycan array binding signal (z-score),[37],-0.293
same,glycan array binding signal (z-score),[38],-0.061
same,glycan array binding signal (z-score),[39],-0.712
same,glycan array binding signal (z-score),[40],3.17
same,glycan array binding signal (z-score),[41],-0.287
same,glycan array binding signal (z-score),[42],2.79
